Test results reported in patent US20230203158A1 (FLAGSHIP PIONEERING INNOVATIONS VII, published 2023).

Target: IL-10 receptor of HEK-BLUE IL-10 cells (the cells express all the components of the IL-10 signaling pathway)
Test: cell-based or functional assay

| EC50 (pM), HEK-BLUE IL-10 signaling assay (SEAP) | Binder |
| --- | --- |
| 54 pM | PRO023 (IL-10/DSG1 ANDbody: native IL-10 fused to the C-termini of the PRO003 heavy chains) (other) heavy: EVQLVESGGGLVQPGRSLRLSCAASGFTFDDYAMHWVRQAPGKGLEWVSGISWNSGSIDYADSVKGRFTISRDNAKNSLYLQMNSLRVEDTALYYCAKDGSRVFGVGGGFDFWGQGTMVTVSSASTKGPSVFPLAPSSKSTSGGTAALGCLVKDYFPEPVTVSWNSGALTSGVHTFPAVLQSSGLYSLSSVVTVPSSSLGTQTYICNVNHKPSNTKVDKKV[human IgG1 Fc with changes not shown]GGGGSGGGGSGGGGSSPGQGTQSENSCTHFPGNLPNMLRDLRDAFSRVKTFFQMKDQLDNLLLKESLLEDFKGYLGCQALSEMIQFYLEEVMPQAENQDPDIKAHVNSLGENLKTLRLRLRRCHRFLPCENKSKAVEQVKNAFNKLQEKGIYKAMSEFDIFINYIEAYMTMKIRN light: ELQMTQSPSSLSASVGDRVTITCQASQDIGNYLNWYQQKPGKAPKLLIYDASYLETGVPSRFSGSGSGTDFTFTISSLQPEDIATYYCQQYDNLPFTFGPGTKVDIKRTVAAPSVFIFPPSDEQLKSGTASVVCLLNNFYPREAKVQWKVDNALQSGNSQESVTEQDSKDSTYSLSSTLTLSKADYEKHKVYACEVTHQGLSSPVTKSFNRGEC |
| 293 pM | PRO024 (IL-10/DSG1 ANDbody: monomeric IL-10 fused to the C-termini of the PRO003 heavy chains) (other) heavy: EVQLVESGGGLVQPGRSLRLSCAASGFTFDDYAMHWVRQAPGKGLEWVSGISWNSGSIDYADSVKGRFTISRDNAKNSLYLQMNSLRVEDTALYYCAKDGSRVFGVGGGFDFWGQGTMVTVSSASTKGPSVFPLAPSSKSTSGGTAALGCLVKDYFPEPVTVSWNSGALTSGVHTFPAVLQSSGLYSLSSVVTVPSSSLGTQTYICNVNHKPSNTKVDKKV[human IgG1 Fc with changes not shown]GGGGSGGGGSGGGGSSPGQGTQSENSCTHFPGNLPNMLRDLRDAFSRVKTFFQMKDQLDNLLLKESLLEDFKGYLGCQALSEMIQFYLEEVMPQAENQDPDIKAHVNSLGENLKTLRLRLRRCHRFLPCENGGGSGGKSKAVEQVKNAFNKLQEKGIYKAMSEFDIFINYIEAYMTMKIRN light: ELQMTQSPSSLSASVGDRVTITCQASQDIGNYLNWYQQKPGKAPKLLIYDASYLETGVPSRFSGSGSGTDFTFTISSLQPEDIATYYCQQYDNLPFTFGPGTKVDIKRTVAAPSVFIFPPSDEQLKSGTASVVCLLNNFYPREAKVQWKVDNALQSGNSQESVTEQDSKDSTYSLSSTLTLSKADYEKHKVYACEVTHQGLSSPVTKSFNRGEC |
| 46 pM | PRO025 (IL-10/DSG1 ANDbody: IL-10 dimer fused to each C-terminus of the PRO003 heavy chains) (other) heavy: EVQLVESGGGLVQPGRSLRLSCAASGFTFDDYAMHWVRQAPGKGLEWVSGISWNSGSIDYADSVKGRFTISRDNAKNSLYLQMNSLRVEDTALYYCAKDGSRVFGVGGGFDFWGQGTMVTVSSASTKGPSVFPLAPSSKSTSGGTAALGCLVKDYFPEPVTVSWNSGALTSGVHTFPAVLQSSGLYSLSSVVTVPSSSLGTQTYICNVNHKPSNTKVDKKV[human IgG1 Fc with changes not shown]GGGGSGGGGSGGGGSSPGQGTQSENSCTHFPGNLPNMLRDLRDAFSRVKTFFQMKDQLDNLLLKESLLEDFKGYLGCQALSEMIQFYLEEVMPQAENQDPDIKAHVNSLGENLKTLRLRLRRCHRFLPCENKSKAVEQVKNAFNKLQEKGIYKAMSEFDIFINYIEAYMTMKIRNGGGSGGGSPGQGTQSENSCTHFPGNLPNMLRDLRDAFSRVKTFFQMKDQLDNLLLKESLLEDFKGYLGCQALSEMIQFYLEEVMPQAENQDPDIKAHVNSLGENLKTLRLRLRRCHRFLPCENKSKAVEQVKNAFNKLQEKGIYKAMSEFDIFINYIEAYMTMKIRN light: ELQMTQSPSSLSASVGDRVTITCQASQDIGNYLNWYQQKPGKAPKLLIYDASYLETGVPSRFSGSGSGTDFTFTISSLQPEDIATYYCQQYDNLPFTFGPGTKVDIKRTVAAPSVFIFPPSDEQLKSGTASVVCLLNNFYPREAKVQWKVDNALQSGNSQESVTEQDSKDSTYSLSSTLTLSKADYEKHKVYACEVTHQGLSSPVTKSFNRGEC |
